# Test results: the supplement of paper PMC12217912
# This is one part of the list. Sequences were assembled here from the parent chain. Inactive controls read about 0.05.
# B1: TEV protease; numbered along this chain (parent)
# chain: MGESLFKGPRDYNPISSSICHLTNESDGHTTSLYGIGFGPFIITNKHLFRRNNGTLVVQSLHGVFKVKDTTTLQQHLVDGRDMIIIRMPKDFPPFPQKLKFREPQREERICLVTTNFQTKSMSSMVSDTSCTFPSGDGIFWKHWIQTKDGQCGSPLVSTRDGFIVGIHSASNFTNTNNYFTSVPKNFMELLTNQEAQQWVSGWRLNADSVLWGGHKVFMVKPEEPFQPVKEATQL
# Variants of: B1
# Experiment: raw area under fraction-flipped curve 0-4 h after induction (AUC4h, not background-subtracted), DNA-recorder readout of cleavage of the substrate (dimensionless); higher = more cleavage of the substrate by the protease variant
# Conditions: temperature: 34 °C; time window: 0-4 h after rhamnose induction
# Procedure: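 In vivo DNA recorder in E. coli TOP10(DE3) ΔrhaA at 34 °C. Each TEVp single-site mutant (parent TEVp 0) is paired with a single-site variant of the 7-mer TEVs (canonical ENLYFQ|S). The substrate sits between flexible linkers in a Bxb1-sfGFP-TEVs-SsrA fusion, so cleavage stabilises Bxb1 and speeds flipping of a recombination array, read by NGS. The value is the raw area under the fraction-flipped curve over 0-4 h after rhamnose induction (AUC4h), with ≥20 reads per time point. It is not background-subtracted; inactive controls average about 0.047.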
# 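Also: Bxb1 expression induced with 0.2% (w/v) L-rhamnose at OD600 near 0.5, cultures sampled hourly, flipped fraction per protease–substrate barcode pair counted by paired-end Illumina sequencing.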
Variant,area with substrate ENLAFQS,area with substrate ENLCFQS,area with substrate ENLDFQS,area with substrate ENLEFQS,area with substrate ENLFFQS,area with substrate ENLGFQS,area with substrate ENLHFQS,area with substrate ENLIFQS,area with substrate ENLKFQS,area with substrate ENLLFQS,area with substrate ENLMFQS,area with substrate ENLNFQS,area with substrate ENLPFQS,area with substrate ENLQFQS,area with substrate ENLSFQS,area with substrate ENLTFQS,area with substrate ENLVFQS,area with substrate ENLWFQS,area with substrate ENLRFQS
I15E,0.0516,0.0555,0.0513,0.0542,0.063,0.0621,0.0156,0.0594,0.0626,0.0558,0.0614,0.0604,0.0533,0.0535,0.0408,0.0595,0.0624,0.0565,–
K7D,0.0732,–,0.0308,0.0701,–,0.0628,0.0567,–,0.0617,0.0678,–,0.0632,0.0601,0.0547,0.0697,0.0817,–,–,–
S4C,0.0798,0.068,0.053,0.0609,0.0797,0.0527,0.0584,–,0.0766,0.0818,0.0742,0.0514,0.0587,–,0.0745,–,0.074,0.0688,0.0692
E25Y,0.0589,0.0867,0.0646,0.0608,0.0862,–,0.0726,0.0919,0.0811,0.0743,0.0656,0.0581,0.0627,0.0716,0.0609,–,–,0.0565,0.0775
E25N,0.0552,0.103,0.0691,–,0.0779,–,0.0706,0.0452,0.0804,0.0784,0.08,0.0558,–,0.0428,0.0745,–,–,–,0.07
E25G,0.0607,0.0615,0.0612,–,0.074,0.0665,0.0591,–,0.0731,0.0694,–,0.0629,–,–,0.0553,0.0718,0.0659,0.0588,0.0617
E25R,0.0916,0.0972,0.0594,–,0.0952,–,0.0695,0.124,0.069,0.0924,0.0652,0.0644,0.0586,0.0619,0.0517,0.0645,–,0.0666,0.0454
I19P,0.0522,0.0414,0.0388,0.0488,0.0494,0.0381,0.0503,0.0448,0.0404,0.0475,0.0571,0.0482,0.0549,0.0512,0.047,–,0.048,0.05,0.0432
I19V,0.0637,0.069,0.0747,0.0591,0.0813,–,0.0665,–,0.073,0.0764,0.0763,0.0691,–,–,0.0665,0.0719,–,–,0.0825
I19Y,0.0541,0.0326,0.0533,–,0.046,0.0562,0.0323,0.0551,0.0468,0.0568,–,0.0448,0.0538,–,0.0513,–,–,0.0534,0.0735
I19K,0.0473,–,0.052,0.0569,0.0644,0.0772,–,0.0568,0.0599,–,–,0.057,0.0523,0.0442,0.0457,–,0.0641,0.0559,0.0636
S26P,0.0666,0.0609,–,0.0639,0.0611,0.0632,0.0637,–,0.0599,0.057,–,0.0527,0.0643,–,0.051,0.0576,–,0.0349,0.0472
S26H,0.0453,0.0581,–,0.0616,0.0755,–,0.0503,0.0705,0.0667,0.0798,–,0.063,0.0235,0.0602,0.0704,–,–,–,0.0657
H29N,0.0829,0.071,0.0606,0.0557,0.0777,–,0.0716,0.0772,0.0805,0.0625,0.0727,0.0719,0.0589,0.0696,0.0884,0.0747,–,0.0706,0.0666
H29C,0.0538,0.092,0.0723,0.063,0.106,0.0871,0.0702,0.0915,0.0746,0.0757,0.0721,0.063,0.0583,0.0745,0.0453,–,–,0.0433,0.0895
T30Y,0.0533,0.0729,0.0647,0.0537,0.0872,–,0.0701,0.066,0.0768,0.0733,0.0656,0.0605,0.0508,0.0617,0.0395,–,–,0.0622,0.0702
N24E,0.092,–,0.0618,–,0.0751,–,0.0468,0.0834,–,0.0714,–,0.0616,0.066,0.0486,0.0703,–,–,0.0778,0.0403
N13E,0.063,–,0.0652,0.0604,0.0828,0.0341,0.0586,0.0597,0.0894,0.101,0.106,0.0666,0.0615,–,0.0625,–,0.0885,–,0.0732
N13L,0.0672,0.0646,0.062,0.0685,0.0896,–,0.0669,–,0.0778,0.0884,0.102,0.063,0.0606,–,0.0556,–,0.0978,0.057,0.0834
N13P,0.0535,0.056,0.0633,0.0631,0.0991,0.0666,0.0808,–,0.0679,0.069,0.0869,0.0666,0.0699,0.0695,0.0715,0.0757,–,0.0622,0.0716
D11V,0.0709,–,0.0699,0.0666,0.0968,0.0696,0.0693,–,0.0785,0.0743,–,0.0692,0.0631,0.0412,0.073,0.0698,0.0766,0.0712,0.0706
T31A,0.0553,0.0745,0.0517,–,0.0822,–,0.0675,–,0.0585,–,0.0789,0.0621,0.0533,–,0.0717,–,–,–,0.0758
Y12L,0.0658,0.0671,0.0634,0.0706,0.0853,0.0927,0.0723,0.114,0.0765,0.0798,0.0801,0.0664,0.0621,0.067,0.0433,–,0.0752,–,0.0803
L33I,0.053,–,0.0615,0.0603,0.048,0.061,0.0616,–,0.0532,0.0604,0.0497,–,0.0657,0.0588,0.0574,–,–,0.0654,0.0647
